84 molecules from PubChem BioAssay AID1346428 (National Center for Advancing Translational Sciences (NCATS), 2018) can be followed below.

“And” between values parts separate entries of the source, which are not always exact repeats. Identical values can stand only once. Among all 48,000 compounds or so, about 1,200 (2.5%) were called active. Not shown: some 2% with an inconclusive outcome.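 How the source made its calls: active means activation of at least 60% and not above a set upper limit (about 1 call in 100 departs from these limits); inconclusive means activation of 40% to 60%, or above that upper limit; inactive means activation under 40%.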 The list shows a part of the results.

Sequence of UniProt O75388 (O75388 whole entry, looked up): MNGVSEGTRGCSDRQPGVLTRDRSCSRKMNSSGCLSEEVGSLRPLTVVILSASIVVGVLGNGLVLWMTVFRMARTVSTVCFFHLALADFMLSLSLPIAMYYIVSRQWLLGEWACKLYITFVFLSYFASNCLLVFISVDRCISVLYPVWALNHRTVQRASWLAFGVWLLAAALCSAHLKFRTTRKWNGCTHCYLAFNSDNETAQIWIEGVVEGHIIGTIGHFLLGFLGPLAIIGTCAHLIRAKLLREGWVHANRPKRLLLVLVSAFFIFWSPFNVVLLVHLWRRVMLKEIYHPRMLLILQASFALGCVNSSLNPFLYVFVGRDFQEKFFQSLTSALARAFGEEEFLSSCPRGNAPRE

For the assay, the target named is Probable G-protein coupled receptor 32 (Homo sapiens) (UniProt O75388). The assay can be described thus: qHTS for Agonists of Human Resolvin D1 Receptor DRV1. Further: 0% is about no effect. As to conditions: CHO-K1 GPR32 beta-arrestin PathHunter luminescence, 90 min; at 76.9 µM; active compounds read high; zero percent set by DMSO-only wells. In a few lines:
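PathHunter beta-arrestin recruitment in CHO-K1 cells stably expressing ProLink-tagged GPR32. Cells were exposed to compound for 90 min at 37 C, then chemiluminescence was read after 1 h detection at ambient temperature; DMSO served as basal control.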
(Quantitative high-throughput screening tests each substance at several concentrations.)
For `COc1cc(OC)c(NC(=O)C(C)n2nc(-c3ccc(C)c(C)c3)ccc2=O)cc1Cl` (centres undefined), the activation was inactive: -14.8%.
The value for `O=C(Nc1ccc(F)cc1)c1cccc(N2CCCS2(=O)=O)c1` was inactive: -3.41%; that for `Cc1cc(=O)n(C(C)C(=O)NCc2ccccc2Cl)c2c1c(C)nn2-c1ccccc1` (centres undefined) was inactive: 7.3%; that for `N[C@@H](CCCC(=O)O)C(=O)O` was inactive: -4.95%.
With `CN(C)CCn1nnnc1SCC1=C(C(=O)O)N2C(=O)[C@@H](NC(=O)Cc3csc(N)n3)[C@H]2SC1`, the activation is inactive: -3.99%.
For the molecule `CCOc1ccccc1NC(=O)C1CCN(S(=O)(=O)Cc2ccccc2)CC1`, the activation was inactive: 23.9%.
As for `COc1cc(OC)c(C2C=C(c3ccc(C)cc3)Nc3c(C(=O)Nc4ccccc4)cnn32)cc1OC` (centres undefined), the activation is inactive: -24.9%.
The value for `Cc1cc(O)c(C(c2ccccc2Cl)N2CCCCC2)c(=O)n1Cc1ccco1` (centres undefined) was inactive: -14.2%; that for `Cc1ccc(C(C)C)c(OCC(=O)Nc2c(C(=O)c3ccc(F)cc3)oc3ccccc23)c1` was inactive: -8.99%; that for `COC(=O)C1=C(C)NC(=O)NC1c1cn(-c2ccccc2)nc1-c1ccc(OC)c(Cl)c1` (centres undefined) was inactive: -21.7%.
On to `CCn1cc(C(=O)NCc2ccccc2)c(=O)c2cc(S(=O)(=O)N3CCOCC3)ccc21`, for which the activation was inactive: -1.43%.
Consider `Cc1c2cnn(CC(=O)N3CCCCC3)c(=O)c2c(C)n1Cc1ccc(Cl)cc1`, for which the activation was inactive: 12.6%.
The value for `Cc1ccc(NC(=O)c2ccc3c(=O)n4nc(Nc5ccccc5C)sc4nc3c2)cc1C` was inactive: 30.6%; that for `CCc1ccc(C2N3CC4(C)CN2CC(c2ccccc2)(C3)C4=O)cc1` (centres undefined) was inactive: -6.42%; that for `CCOC(=O)C(C)NC(=O)c1cc2c(=O)[nH]c3ccc(C)cc3c2s1` (centres undefined) was inactive: -10.5%.
Take `O=C(NCCc1ccc(Cl)cc1)c1ccc2c(c1)N(Cc1ccc(F)cc1Cl)C(=O)CS2`: the activation is inactive: 9%.
Take `CC(C)CCCC(C)N` (centres undefined): the activation is inactive: -0.708%.
`Cc1ccc(/C=C/c2onc(C)c2S(=O)(=O)N2CCC(C(=O)NCc3ccc(Cl)cc3)CC2)cc1`: the activation is inactive: -0.268%.
To `CC(NC(=O)c1ccc(N2Cc3ccccc3Oc3ncccc32)s1)c1ccccc1` (centres undefined) belongs inactive: -21.2%; to `Cc1c(Cl)cccc1NC(=O)C(=O)NCCc1csc(-c2cccc(F)c2)n1`, inactive: -12.8%; to `CCn1c(CN2CCCCC2)nc2cc(NC(=O)COc3ccc([N+](=O)[O-])cc3)ccc21`, inactive: 8.34%.
As to `COc1ccc(-c2[nH]c(-c3ccccc3)nc2SCC(=O)Nc2ccc3c(c2)OCO3)cc1`, the activation was inactive: -3.94%.
Turning to `COc1ccc(NC(=O)c2ccc(-c3cccc(Cl)c3C)o2)cc1`, the activation is inactive: -0.0644%.
The value for `CC(NC(=O)Cc1ccc(NC(=O)N2CCCCc3ccccc32)cc1)c1ccccc1` (centres undefined) was inactive: -16.3%; that for `COc1ccc(-c2nc(CSc3nc4ncccc4[nH]3)c(C)o2)cc1OC` was inactive: -7.6%; that for `COc1ccc(-c2noc(CSc3nnc(-c4ccncc4)n3-c3cccc(C)c3)n2)cc1OC` was inactive: 0.499%.
For `Cc1cc(C)cc(NC(=O)NCC2CCN(Cc3cc(C)ccc3C)CC2)c1`, the activation is inactive: -1.17%.
On to `CC(=O)Nc1ccc(-c2nnc3n(CC(C)C)c(=O)c4ccccc4n23)cc1`, for which the activation was inactive: 20.9%.
As to `COc1ccccc1NC(=O)Cn1c(SCC(=O)NCc2ccccc2)nc2ccccc21`, the activation was inactive: -3.87%.
To `Cc1ccc(-c2cc(-c3coc4ccccc4c3=O)c3c(n2)-c2cc(Cl)ccc2OC3)cc1` belongs inactive: 0.451%; to `CCc1ccc(OCC2c3cc(OC)c(OC)cc3CCN2C(=O)Cc2ccc(OC)c(OC)c2)cc1` (centres undefined), inactive: -35.1%.
For `COc1cc2c(cc1NC(=O)C(C)Oc1ccc(Cl)cc1Cl)oc1ccccc12` (centres undefined), the activation is inactive: -0.319%.
For `COc1ccc(NC(=O)c2oc3ccc4c(c3c2C)C(=O)CC(C)(C)O4)cc1OC`, the activation was inactive: -3.27%.
As for `COc1ccc(NC(=O)CCCN2C(=O)C(c3ccccc3)Oc3cccnc32)cc1OC` (centres undefined), the activation is active: 76.2%.
For `Cc1ccc(CCNC(=O)CCCn2nc(C)c3c(C)n(-c4ccc(C)cc4)nc3c2=O)cc1`, the activation was inactive: -10.8%.
As for `Cc1ccc(OCC(=O)OCc2cc(=O)n3nc(C4CCCCC4)sc3n2)cc1`, the activation was inactive: -9.26%.
To `CCN(c1ncnc2c1c(-c1ccccc1)cn2-c1ccccc1)C1CCCCC1` belongs inactive: -24.9%.
To `Cc1cc(N2CCN(C)CC2)nc2ccc(NC(=O)Nc3ccccc3Cl)cc12` belongs inactive: 21.7%; to `CSCCC(NC(=O)C1CCCCC1)C(=O)Nc1ccc(F)c(Cl)c1` (centres undefined), inactive: -17.3%; to `CCNc1c(NC(=O)c2ccccc2OCC)c(=O)oc2ccccc12`, inactive: 1.71%.
Regarding `COc1ccc(OC)c(CCNC(=O)c2sc3nc4n(c(=O)c3c2C)CCCC4)c1`, the activation was inactive: -6.25%.
As for `CCOc1ccccc1NS(=O)(=O)c1c(C(=O)OC)sc2cccc(F)c12`, the activation is inactive: -15.1%.
Regarding `O=c1[nH]c2cc(C(F)(F)F)ccc2n1-c1cc(C(F)(F)F)ccc1O`, the activation was inactive: -1.15%.
To `COc1ccc(N(C(=O)c2ccccc2C)S(=O)(=O)c2ccc3c(c2)n(C)c(=O)n3C)cc1` belongs inactive: 1.87%.
The value for `Cc1ccc(N2C(=O)[C@@H]3CSC(c4ccc(C(F)(F)F)cc4)N3C2=O)cc1` (some centres undefined) was inactive: 15.5%; that for `COc1cccc(-c2nc(SC(C(C)=O)C(=O)N(C)C)c3c(=O)n(C)c(=O)n(C)c3n2)c1` (centres undefined) was inactive: -10.1%.
With `CCOC(=O)C1=C(CNCc2ccccc2)NC(=O)NC1c1ccc(C)cc1` (centres undefined), the activation is inactive: -8.63%.
Consider `Cc1ccc(S(=O)(=O)N2CCCc3cc(NC(=O)c4ccc(C(F)(F)F)cc4)ccc32)cc1`, for which the activation was inactive: -5.36%.
To `COc1ccc(-n2c(=O)c3c(C)c(C)sc3n(Cc3ccc(F)cc3)c2=O)c(OC)c1` belongs inactive: -12.2%; to `CC1(c2ccccc2)OC(C(=O)O)=CC1=O` (centres undefined), inactive: -5.35%.
The value for `O=C(COc1ccccc1)NCCc1csc(-c2ccc(F)cc2)n1` was active: 120%; that for `CN(C(=O)Cn1c(=O)n(Cc2ccc(C(=O)NCc3ccc4c(c3)OCO4)cc2)c(=O)c2ccccc21)c1ccccc1` was inactive: -0.176%.
As to `O=C(Cn1cc(S(=O)(=O)Cc2cccc(Cl)c2)c2ccccc21)Nc1ccc(F)c(Cl)c1`, the activation is inactive: 21%.
Take `Cn1ccnc1`: the activation is inactive: -9.85%.
In the case of `CCCCOc1ccc(Cn2c(=O)oc3ccccc32)cc1`, the activation is inactive: 26%.
Take `Cc1cccc(C)c1NC(=O)CN(CC(=O)O)CC(=O)O`: the activation is inactive: -23.2%.
Turning to `COc1ccc(CNC(=O)CCc2nc3cccnc3n2Cc2ccc(OC)cc2)cc1`, the activation was inactive: -4.4%.
For the molecule `Cc1ccccc1Cc1c(C)nc2c(-c3ccccc3)c(C)[nH]n2c1=O`, the activation was inactive: -51.5%.
Consider `Cc1ccc(NC(=O)Cn2c(=O)n(CCc3ccccc3)c(=O)c3sc4ccccc4c32)cc1C`, for which the activation was inactive: 15.2%.
With `CCOc1ccc(OCC(=O)NCCS(=O)(=O)N2CCN(c3ccc(OC)cc3)CC2)cc1`, the activation was inactive: -13.9%.
In the case of `COC(=O)c1ccc(NC(=O)c2nn(C)c3c2COc2ccccc2-3)cc1`, the activation was inactive: -3.3%.
The value for `COc1ccccc1CNS(=O)(=O)c1cc(-c2cc(C)no2)ccc1C` was inactive: -15.4%; that for `O=C(NCc1cccc(Cl)c1)c1oc(=O)c2ccccc2c1-c1ccccc1` was inactive: -2.57%; that for `Cc1nn(CCCC(=O)NCCc2ccc(Cl)cc2)c(=O)c2nn(-c3ccccc3)c(C)c12` was inactive: -1.59%.
Consider `O=C(NCc1ccccc1F)c1cccc(NC(=O)N2CCSc3ncccc32)c1`, for which the activation is inactive: 1.74%.
Take `Cc1ccc(-c2cc(NC(=O)COc3c(C)cc(C)cc3C)on2)cc1`: the activation is inactive: -2.37%.
Consider `COc1ccc(C2CC(=O)c3cc(-c4nc(-c5cccc([N+](=O)[O-])c5)cs4)c(=O)n(-c4ccccc4C)c3C2)cc1` (centres undefined), for which the activation is inactive: -0.143%.
As to `CCn1c(=O)c(C(=O)Nc2cc(OC)c(OC)c(OC)c2)nc2ccccc21`, the activation is inactive: 9.6%.
Regarding `CCN(CC)CCOC(=O)c1ccc(N)cc1`, the activation is inactive: 2.9% and inactive: -5.44%.
As for `CCc1cccc(C)c1NC(=O)C(CC)Sc1nc2ccncc2[nH]1` (centres undefined), the activation was inactive: -2.54%.
Consider `CCOc1cccc2sc(NC(=O)c3ccc(S(=O)(=O)N4CCc5ccccc54)cc3)nc12`, for which the activation was inactive: -13.7%.
Consider `COc1ccc(CN2CCN(c3ncnc4sc5c(c34)CCCC5)CC2)cc1F`, for which the activation is inactive: 4.75%.
The value for `CSc1ncc(C(=O)NCc2ccccc2Cl)c(C(F)(F)F)n1` was inactive: -0.121%.
In the case of `Cc1ccc(NC(=O)N2CCc3c(sc4c3CCCC4)C2c2ccccc2)cc1F` (centres undefined), the activation is inactive: -9.07%.
The value for `CCCCc1nn2c(=O)cc(COC(=O)c3ccc(NC(=O)c4cccc(OC)c4)cc3)nc2s1` was inactive: -0.349%; that for `CCCN1CCN(CC2=C(C(=O)OCC)C(c3cccc(OC)c3OC)NC(=O)N2)CC1` (centres undefined) was inactive: -7.9%.
Regarding `CCOC(=O)CSc1nc2cc3c(cc2c(=O)n1CCCCCC(=O)NCc1ccc2c(c1)OCO2)OCO3`, the activation was inactive: -20.6%.
Consider `CCCCN(C)C(=O)c1ccc2c(c1)N(Cc1cccc(Cl)c1)C(=O)c1ccccc1S2=O` (centres undefined), for which the activation is inactive: -23.8%.
Take `Cc1ccc2c(CC(=O)Nc3ccc(S(=O)(=O)Nc4nc(C)cc(C)n4)cc3)coc2c1`: the activation was inactive: -8.91%.
Take `Cc1cc(C)cc(NC(=O)N2CCN(C)c3ncccc32)c1`: the activation was inactive: -15%.
In the case of `Cn1c(=O)cc(OCC(=O)N2CCN(c3ccccc3F)CC2)c2ccccc21`, the activation was inactive: -3.75%.
Consider `CN(C)CCOC(c1ccccc1)c1ccc(Br)cc1` (centres undefined), for which the activation is inactive: 15.2%.
Take `CCOc1ccc(CNC(=O)CN2C(=O)CSc3ccc(S(=O)(=O)N4CCOCC4)cc32)cc1OC`: the activation was inactive: -13.4%.
As to `COc1ccc(-c2noc(-c3cc(C(C)C)[nH]n3)n2)cc1`, the activation was inactive: 17.3%.
